The source of these data is article PMC4336329 (PLoS ONE, 2015).

Each structure is given as a SMILES string. About 14,000 (4.5%) of roughly 310,000 compounds showed an effect of 50% or more. The effect is printed as a negative number. The list shows a part of the results.
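Note: peak tail current of the secondary pulse compared with the same well before compound.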

The target of the assay is human ether-à-go-go-related gene (hERG) potassium channel (human, UniProt Q12809). The experiment in a line: primary screen, population patch clamp on CHO cells stably expressing hERG.
Chain of human ether-à-go-go-related gene (hERG) potassium channel (Q12809 whole entry, looked up): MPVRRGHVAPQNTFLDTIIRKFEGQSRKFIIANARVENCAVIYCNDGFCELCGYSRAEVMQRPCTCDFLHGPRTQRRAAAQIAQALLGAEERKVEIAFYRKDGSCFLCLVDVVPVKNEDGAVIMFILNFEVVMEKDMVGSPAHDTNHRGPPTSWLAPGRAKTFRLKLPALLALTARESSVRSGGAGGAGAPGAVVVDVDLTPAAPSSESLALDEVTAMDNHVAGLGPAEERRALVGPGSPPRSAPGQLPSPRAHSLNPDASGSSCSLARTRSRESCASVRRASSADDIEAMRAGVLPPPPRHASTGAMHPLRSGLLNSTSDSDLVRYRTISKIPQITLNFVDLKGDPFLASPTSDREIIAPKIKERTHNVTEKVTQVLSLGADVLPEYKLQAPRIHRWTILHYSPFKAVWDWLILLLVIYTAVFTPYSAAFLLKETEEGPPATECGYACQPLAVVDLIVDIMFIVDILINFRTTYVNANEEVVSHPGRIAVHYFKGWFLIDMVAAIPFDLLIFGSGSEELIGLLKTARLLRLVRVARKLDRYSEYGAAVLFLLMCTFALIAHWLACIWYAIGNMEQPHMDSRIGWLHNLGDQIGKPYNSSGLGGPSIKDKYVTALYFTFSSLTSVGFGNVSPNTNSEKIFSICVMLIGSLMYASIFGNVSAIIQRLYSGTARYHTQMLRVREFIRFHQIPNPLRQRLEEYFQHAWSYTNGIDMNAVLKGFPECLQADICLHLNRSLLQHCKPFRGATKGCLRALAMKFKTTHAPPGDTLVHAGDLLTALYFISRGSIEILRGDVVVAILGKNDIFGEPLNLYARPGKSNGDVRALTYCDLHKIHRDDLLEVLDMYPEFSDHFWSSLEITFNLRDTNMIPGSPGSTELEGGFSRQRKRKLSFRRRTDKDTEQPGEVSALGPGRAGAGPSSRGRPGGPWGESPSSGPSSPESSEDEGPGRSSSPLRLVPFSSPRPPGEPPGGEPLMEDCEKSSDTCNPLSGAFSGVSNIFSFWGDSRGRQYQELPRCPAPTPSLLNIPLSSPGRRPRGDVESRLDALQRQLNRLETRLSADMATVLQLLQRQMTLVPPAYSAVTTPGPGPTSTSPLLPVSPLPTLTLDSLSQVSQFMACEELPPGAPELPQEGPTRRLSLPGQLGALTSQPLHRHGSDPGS
Consider `CCCN(CCC)CCNC(=O)c1cc2c(-c3ccc(Cl)cc3)nn(C)c2s1`, for which the “hERG current change (%, negative = inhibition) at 10uM” value is reported as -65.6%.
With `Cc1cc2oc(=O)c(CC(=O)NCCCN(C)C)c(C)c2c2occ(C(C)(C)C)c12`, the “hERG current change (%, negative = inhibition) at 10uM” value is on record as -69.1%.
With `O=C(CCC(=O)NNC(=O)c1ccc([N+](=O)[O-])cc1)NCc1ccccc1`, the “hERG current change (%, negative = inhibition) at 10uM” value was 10.9%.
For `COC(=O)c1cc(S(=O)(=O)N2CCOCC2)ccc1Sc1ccccc1N`, the “hERG current change (%, negative = inhibition) at 10uM” value was -6.97%.
Next, `Cc1cc(C)c2oc(C(=O)Nc3ccc(S(=O)(=O)Nc4nccc(C)n4)cc3)cc(=O)c2c1`: 16.1%.
For `CCOC(=O)c1ccc(Oc2nc(OC)cc(OC)n2)cc1`, the “hERG current change (%, negative = inhibition) at 10uM” value is given as 10.8%.
As for `CN1C(=O)C(O)(CC(=O)c2ccccc2O)c2cc(Br)ccc21` (stereo not drawn), the “hERG current change (%, negative = inhibition) at 10uM” value came to 3.54%.
Take `COc1ccc(C(=O)OCC(=O)NCC2CCCO2)cc1` (stereo not drawn): the “hERG current change (%, negative = inhibition) at 10uM” value was 17.7%.
With `Cc1ccc(OCC(=O)N2CCN(C(=O)c3cccc(F)c3)CC2)cc1` the figure was -13.3%; with `O=C(Nc1ccc(F)cc1F)c1cccnc1`, 21.1%.
With `CC(=O)c1cccc(NC(=O)CSc2ccc(-c3ccc4c(c3)OCO4)nn2)c1` the figure was 7.69%; with `CCOc1ccc(NC(=S)Nc2ccc(OC)cc2)cc1`, 12.8%.
With `Cc1ccc(S(=O)(=O)N(C)Cc2ccc(C(=O)N/N=C/c3ccc(OC(F)F)cc3)cc2)cc1` the figure was 10.7%.
On to `COc1ccc(S(=O)(=O)N(C)CC(=O)NC2CCCC2)cc1OC`, for which the “hERG current change (%, negative = inhibition) at 10uM” value amounted to 13.7%.
On to `O=C(/C=C/c1cccc(F)c1)Nc1cc(S(=O)(=O)N2CCOCC2)ccc1N1CCCC1`, for which the “hERG current change (%, negative = inhibition) at 10uM” value is on record as -57.7%.
Turning to `COC(=O)[C@@H]1C[C@@H]2CC[C@@H](O)C[C@@H]2N1Cc1ccccc1OS(=O)(=O)c1ccc(C)cc1`, the “hERG current change (%, negative = inhibition) at 10uM” value was -10.2%.
Consider `Cc1ccc(C2C3C(=O)N(c4ccccc4)C(=O)C3N3CCCN23)cc1` (stereo not drawn), for which the “hERG current change (%, negative = inhibition) at 10uM” value is 14.9%.
Take `NS(=O)(=O)c1ccc(CCNC(=O)CNCCc2ccc(C(F)(F)F)cc2)cc1.O=C(O)C(=O)O`: the “hERG current change (%, negative = inhibition) at 10uM” value is on record as -21.5%.
Regarding `CC1CCCN(c2ccc(/C=C(\C#N)c3nn(-c4ccccc4)c(N)c3C#N)cc2[N+](=O)[O-])C1` (stereo not drawn), the “hERG current change (%, negative = inhibition) at 10uM” value is on record as 12.9%.
With `CC(=O)OCCN1C(=O)c2cccc3cc([N+](=O)[O-])cc(c23)C1=O` the figure was -26.9%; with `Cc1ccc(OCC(=O)N(Cc2cccc(Cl)c2)C2CCS(=O)(=O)C2)cc1C` (stereo not drawn), 4.83%.
With `CCCN(C(=O)c1ccccc1N)c1c(C)n(C)n(-c2ccccc2)c1=O` the figure was 12.7%; with `Cc1ccc(C)c(NC(=O)CN(C)C(=O)c2ccc3[nH]c4c(c3c2)CC(C)CC4)c1` (stereo not drawn), 12.1%.
In the case of `Cc1ccc(-c2cc(C(=O)NCCCN3CCOCC3)no2)cc1`, the “hERG current change (%, negative = inhibition) at 10uM” value is -30.8%.
Turning to `CCN1CCc2c(sc(NC(=O)Nc3ccc(Cl)c(Cl)c3)c2C(N)=O)C1`, the “hERG current change (%, negative = inhibition) at 10uM” value is -41.5%.
As to `NC1=C(Br)C(=O)c2ccccc2C1=O`, the “hERG current change (%, negative = inhibition) at 10uM” value was 5.22%.
As to `COC(=O)c1cn(Cc2ccc(C(F)(F)F)cc2)cc(F)c1=O`, the “hERG current change (%, negative = inhibition) at 10uM” value came out at 5.58%.
As for `O=C(NCCCCCCOC1=NS(=O)(=O)c2ccccc21)C(=O)Nc1ccccc1`, the “hERG current change (%, negative = inhibition) at 10uM” value turned out to be 17.1%.
As for `CC(=O)N1CCN(c2ccc(NC(=O)c3ccccc3Br)cc2Cl)CC1`, the “hERG current change (%, negative = inhibition) at 10uM” value is -23%.
In the case of `O=C(/C=C/c1ccc2c(c1)OCO2)c1ccc[nH]1`, the “hERG current change (%, negative = inhibition) at 10uM” value is listed as -4.59%.
Regarding `CCCOc1ccc(N2C(=O)CC(N(CCc3ccc(OC)cc3)C(=O)c3ccccc3)C2=O)cc1` (stereo not drawn), the “hERG current change (%, negative = inhibition) at 10uM” value was -10.6%.
With `CC(C)NC(=O)CN1CCC(c2ccccc2)C(O)C1` (stereo not drawn), the “hERG current change (%, negative = inhibition) at 10uM” value was found to be 20.1%.
Next, `CCN(CC)CCN(C(=O)c1ccc(Br)s1)c1nc2cc3c(cc2s1)OCCO3.Cl`: -1.19%; `CCCSc1nc2cc(S(=O)(=O)N3CCOCC3)ccc2n1CC`: -9.64%.
In the case of `CCOC(=O)c1cn(CC2CC2)c2cc(F)c(F)cc2c1=O`, the “hERG current change (%, negative = inhibition) at 10uM” value is -16.2%.
Regarding `CCOc1ccc(-n2c(-c3cccs3)nc3ccccc3c2=O)cc1`, the “hERG current change (%, negative = inhibition) at 10uM” value came to 25.7%.
As to `CCOc1ccc(-c2nn(-c3ccccc3)cc2/C=C2\SC(=S)N(C3CCS(=O)(=O)C3)C2=O)cc1` (stereo not drawn), the “hERG current change (%, negative = inhibition) at 10uM” value was 9.23%.
With `O=c1[nH]cc(N2CCCCCC2)c(=O)[nH]1`, the “hERG current change (%, negative = inhibition) at 10uM” value came out at 15.6%.
`Cc1ccc(CONC(=O)c2ccccc2)cc1`: the “hERG current change (%, negative = inhibition) at 10uM” value is 19.6%.
Next, `C=CCn1c(SCCNC(C)=O)nc2cc(-c3ccccc3)sc2c1=O`: 3.58%; `CC(=O)N1c2ccc(S(=O)(=O)NCC3CCC(C(=O)NC4CCCCC4C)CC3)cc2CC1C` (stereo not drawn): -12.2%; `CC(C)CCn1c(N2CCCC2)nc2c1c(=O)n(C)c(=O)n2C`: 7.4%.
